# Laboratory results as given in the supplement of paper PMC8728848.
# This is one part of the list.
# Columns and labels:
# Assay in all cases: glycan array binding signal (z-score within array); higher = stronger binding
# Conditions in all cases: glycan notation: IUPAC condensed, linker removed
# [1] = molecular target: Neu5Ac(a2-3)Gal(b1-3)GalNAc
# Procedure, shortened: (§1)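 From the Consortium for Functional Glycomics database, 3228 arrays were curated, keeping only those whose protein sequence was available. Binding is given as a within-array Z-score averaged across arrays sharing a protein sequence and across linkers. Negative Z-scores can be read as non-binding.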
# [2] = molecular target: Neu5Ac(a2-3)Gal(b1-3)GalNAc(b1-3)Gal(a1-4)Gal(b1-4)Glc
# Procedure, shortened: as §1
# [3] = molecular target: Neu5Ac(a2-3)Gal(b1-3)GalNAc(b1-4)[Neu5Ac(a2-3)]Gal(b1-4)Glc
# Procedure, shortened: as §1
# [4] = molecular target: Neu5Ac(a2-3)Gal(b1-3)GalNAc(b1-4)[Neu5Ac(a2-8)Neu5Ac(a2-3)]Gal(b1-4)Glc
# Procedure, shortened: as §1
# [5] = molecular target: Neu5Ac(a2-3)Gal(b1-3)GalNAc6S
# Procedure, shortened: as §1
# [6] = molecular target: Neu5Ac(a2-3)Gal(b1-3)GlcNAc
# Procedure, shortened: as §1
# [7] = molecular target: Neu5Ac(a2-3)Gal(b1-3)GlcNAc(b1-2)Man
# Procedure, shortened: as §1
# [8] = molecular target: Neu5Ac(a2-3)Gal(b1-3)GlcNAc(b1-2)Man(a1-3)[GlcNAc(b1-4)][Neu5Ac(a2-3)Gal(b1-3)GlcNAc(b1-2)Man(a1-6)]Man(b1-4)GlcNAc(b1-4)GlcNAc
# Procedure, shortened: as §1
# [9] = molecular target: Neu5Ac(a2-3)Gal(b1-3)GlcNAc(b1-2)Man(a1-3)[Neu5Ac(a2-3)Gal(b1-3)GlcNAc(b1-2)Man(a1-6)]Man(b1-4)GlcNAc(b1-4)GlcNAc
# Procedure, shortened: as §1
# [10] = molecular target: Neu5Ac(a2-3)Gal(b1-3)GlcNAc(b1-3)Gal(b1-3)GlcNAc
# Procedure, shortened: as §1
# [11] = molecular target: Neu5Ac(a2-3)Gal(b1-3)GlcNAc(b1-3)Gal(b1-4)GlcNAc
# Procedure, shortened: as §1
# [12] = molecular target: Neu5Ac(a2-3)Gal(b1-3)GlcNAc(b1-3)GalNAc
# Procedure, shortened: as §1
# [13] = molecular target: Neu5Ac(a2-3)Gal(b1-3)GlcNAc(b1-4)Gal(b1-4)Glc
# Procedure, shortened: as §1
# [14] = molecular target: Neu5Ac(a2-3)Gal(b1-3)GlcNAc(b1-6)GalNAc
# Procedure, shortened: as §1
# [15] = molecular target: Neu5Ac(a2-3)Gal(b1-3)GlcNAc6S
# Procedure, shortened: as §1
# [16] = molecular target: Neu5Ac(a2-3)Gal(b1-3)[Fuc(a1-4)]GlcNAc
# Procedure, shortened: as §1
# [17] = molecular target: Neu5Ac(a2-3)Gal(b1-3)[Fuc(a1-4)]GlcNAc(b1-3)Gal(b1-3)[Fuc(a1-4)]GlcNAc
# Procedure, shortened: as §1
# [18] = molecular target: Neu5Ac(a2-3)Gal(b1-3)[Fuc(a1-4)]GlcNAc(b1-3)Gal(b1-4)[Fuc(a1-3)]GlcNAc
# Procedure, shortened: as §1
# [19] = molecular target: Neu5Ac(a2-3)Gal(b1-3)[GlcNAc(b1-6)]GalNAc
# Procedure, shortened: as §1
# [20] = molecular target: Neu5Ac(a2-3)Gal(b1-3)[Neu5Ac(a2-6)]GalNAc
# Procedure, shortened: as §1
# [21] = molecular target: Neu5Ac(a2-3)Gal(b1-3)[Neu5Ac(a2-6)]GlcNAc(b1-3)[Fuc(a1-3)[Gal(b1-4)]GlcNAc(b1-6)]Gal(b1-4)Glc
# Procedure, shortened: as §1
# [22] = molecular target: Neu5Ac(a2-3)Gal(b1-3)]Neu5Ac(a2-3)Gal(b1-4)]GlcNAc
# Procedure, shortened: as §1
# Neu5Ac(a2-3)Gal(b1-4)Glc = molecular target: Neu5Ac(a2-3)Gal(b1-4)Glc
# Procedure, shortened: as §1
# [23] = molecular target: Neu5Ac(a2-3)Gal(b1-4)GlcNAc
# Procedure, shortened: as §1
# [24] = molecular target: Neu5Ac(a2-3)Gal(b1-4)GlcNAc(b1-2)Man
# Procedure, shortened: as §1
# [25] = molecular target: Neu5Ac(a2-3)Gal(b1-4)GlcNAc(b1-2)Man(a1-3)[GlcNAc(b1-4)][Neu5Ac(a2-3)Gal(b1-4)GlcNAc(b1-2)Man(a1-6)]Man(b1-4)GlcNAc(b1-4)GlcNAc
# Procedure, shortened: as §1
# [26] = molecular target: Neu5Ac(a2-3)Gal(b1-4)GlcNAc(b1-2)Man(a1-3)[Neu5Ac(a2-3)Gal(b1-4)GlcNAc(b1-2)Man(a1-6)]Man(b1-4)GlcNAc(b1-4)GlcNAc
# Procedure, shortened: as §1
# [27] = molecular target: Neu5Ac(a2-3)Gal(b1-4)GlcNAc(b1-2)Man(a1-3)[Neu5Ac(a2-3)Gal(b1-4)GlcNAc(b1-2)Man(a1-6)]Man(b1-4)GlcNAc(b1-4)[Fuc(a1-6)]GlcNAc
# Procedure, shortened: as §1
# [28] = molecular target: Neu5Ac(a2-3)Gal(b1-4)GlcNAc(b1-2)Man(a1-3)[Neu5Ac(a2-6)Gal(b1-4)GlcNAc(b1-2)Man(a1-6)]Man(b1-4)GlcNAc(b1-4)GlcNAc
# Procedure, shortened: as §1
# [29] = molecular target: Neu5Ac(a2-3)Gal(b1-4)GlcNAc(b1-2)[Neu5Ac(a2-3)Gal(b1-4)GlcNAc(b1-4)]Man(a1-3)[GlcNAc(b1-4)][Neu5Ac(a2-3)Gal(b1-4)GlcNAc(b1-2)[Neu5Ac(a2-3)Gal(b1-4)GlcNAc(b1-6)]Man(a1-6)]Man(b1-4)GlcNAc(b1-4)GlcNAc
# Procedure, shortened: as §1
# [30] = molecular target: Neu5Ac(a2-3)Gal(b1-4)GlcNAc(b1-2)[Neu5Ac(a2-3)Gal(b1-4)GlcNAc(b1-4)]Man(a1-3)[GlcNAc(b1-4)][Neu5Ac(a2-3)Gal(b1-4)GlcNAc(b1-4)Man(a1-6)]Man(b1-4)GlcNAc(b1-4)GlcNAc
# Procedure, shortened: as §1
# [31] = molecular target: Neu5Ac(a2-3)Gal(b1-4)GlcNAc(b1-2)[Neu5Ac(a2-3)Gal(b1-4)GlcNAc(b1-6)]Man(a1-6)[Neu5Ac(a2-3)Gal(b1-4)GlcNAc(b1-2)Man(a1-3)]Man(b1-4)GlcNAc(b1-4)GlcNAc
# Procedure, shortened: as §1
# [32] = molecular target: Neu5Ac(a2-3)Gal(b1-4)GlcNAc(b1-2)[Neu5Ac(a2-3)Gal(b1-4)GlcNAc(b1-6)]Man(a1-6)[Neu5Ac(a2-3)Gal(b1-4)GlcNAc(b1-2)Man(a1-3)][GlcNAc(b1-4)]Man(b1-4)GlcNAc(b1-4)GlcNAc
# Procedure, shortened: as §1
# [33] = molecular target: Neu5Ac(a2-3)Gal(b1-4)GlcNAc(b1-3)Gal
# Procedure, shortened: as §1
# [34] = molecular target: Neu5Ac(a2-3)Gal(b1-4)GlcNAc(b1-3)Gal(b1-3)GlcNAc
# Procedure, shortened: as §1
# [35] = molecular target: Neu5Ac(a2-3)Gal(b1-4)GlcNAc(b1-3)Gal(b1-4)GlcNAc
# Procedure, shortened: as §1
# [36] = molecular target: Neu5Ac(a2-3)Gal(b1-4)GlcNAc(b1-3)Gal(b1-4)GlcNAc(b1-2)Man(a1-3)[Neu5Ac(a2-3)Gal(b1-4)GlcNAc(b1-3)Gal(b1-4)GlcNAc(b1-2)Man(a1-6)]Man(b1-4)GlcNAc(b1-4)GlcNAc
# Procedure, shortened: as §1
binder,measurement,setting,value
PX9937D-bvu-500-26-500 (Bacteroides vulgatus) (protein) DPVSDITDLNYWKTPEQFDSFVFGLHSRFRSHSWNMFLLGEARSDVFGGIPFGGEATQGMERFPYNTLNAENPGISGFGDLYQNINQMNLFISRTLHTDVLTESARNYYLGQVYGLRAYYMYQLYRSWGDVVFTEEPSLGFEVGKLAKAATPAAEIFEQVKKDIESSLSYFGSDYTIKEKKSLWSKAATLMLKADVYLWSAHRDGGEGDARTAKNALVDIQNNISRSNLDLMDTYQGVFAYDNKGNKEIIFTIHNELFEYNLWNGNNDLFPQADYLGKFYNADGTLINTSVENNFGIMRLMVKLENFKKFLPGDTRRDVTLKDVYNKVENGKLELVGVYPHKYWGVMNGSTRVRCDDYPIYRYSDLLLMLAEAKVLLGEDPATEINRVRRRAFGDAYDASTVGFPNQEVDKRPADAVLQERLFEFMLEGKRWYDLRRFGDSYVLDYTPAEPARLLWPINQGALTNNPLLKQTVGY,glycan array binding signal (z-score),[1],-0.219
same,glycan array binding signal (z-score),[2],0.014
same,glycan array binding signal (z-score),[3],-0.308
same,glycan array binding signal (z-score),[4],-0.054
same,glycan array binding signal (z-score),[5],-0.17
same,glycan array binding signal (z-score),[6],-0.426
same,glycan array binding signal (z-score),[7],0.155
same,glycan array binding signal (z-score),[8],-0.127
same,glycan array binding signal (z-score),[9],0.349
same,glycan array binding signal (z-score),[10],-0.452
same,glycan array binding signal (z-score),[11],-0.047
same,glycan array binding signal (z-score),[12],-0.295
same,glycan array binding signal (z-score),[13],0.237
same,glycan array binding signal (z-score),[14],-0.392
same,glycan array binding signal (z-score),[15],-0.159
same,glycan array binding signal (z-score),[16],-0.323
same,glycan array binding signal (z-score),[17],-0.345
same,glycan array binding signal (z-score),[18],-0.36
same,glycan array binding signal (z-score),[19],-0.595
same,glycan array binding signal (z-score),[20],-0.336
same,glycan array binding signal (z-score),[21],-0.318
same,glycan array binding signal (z-score),[22],-0.42
same,glycan array binding signal (z-score),Neu5Ac(a2-3)Gal(b1-4)Glc,-0.033
same,glycan array binding signal (z-score),[23],0.038
same,glycan array binding signal (z-score),[24],-0.574
same,glycan array binding signal (z-score),[25],-0.229
same,glycan array binding signal (z-score),[26],-0.161
same,glycan array binding signal (z-score),[27],-0.13
same,glycan array binding signal (z-score),[28],-0.324
same,glycan array binding signal (z-score),[29],-0.306
same,glycan array binding signal (z-score),[30],-0.376
same,glycan array binding signal (z-score),[31],-0.087
same,glycan array binding signal (z-score),[32],-0.162
same,glycan array binding signal (z-score),[33],-0.564
same,glycan array binding signal (z-score),[34],-0.654
same,glycan array binding signal (z-score),[35],-0.075
same,glycan array binding signal (z-score),[36],0.163
